The text below walks through data of the supplement of paper PMC12217912.

B1: TEV protease; numbered along this chain (parent)
chain: MGESLFKGPRDYNPISSSICHLTNESDGHTTSLYGIGFGPFIITNKHLFRRNNGTLVVQSLHGVFKVKDTTTLQQHLVDGRDMIIIRMPKDFPPFPQKLKFREPQREERICLVTTNFQTKSMSSMVSDTSCTFPSGDGIFWKHWIQTKDGQCGSPLVSTRDGFIVGIHSASNFTNTNNYFTSVPKNFMELLTNQEAQQWVSGWRLNADSVLWGGHKVFMVKPEEPFQPVKEATQL

Some of the results follow. Sequences were assembled here from the parent chain. Values near 0.05 are background.

This assay covers variants of B1. Kind of assay: raw area under fraction-flipped curve 0-4 h after induction (AUC4h, not background-subtracted), DNA-recorder readout of cleavage of the substrate (dimensionless); higher = more cleavage of the substrate by the protease variant. The following applies: temperature: 34 °C; time window: 0-4 h after rhamnose induction.
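Further: Bxb1 expression induced with 0.2% (w/v) L-rhamnose at OD600 near 0.5, cultures sampled hourly, flipped fraction per protease–substrate barcode pair counted by paired-end Illumina sequencing.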

For MGESLFKGPRDYNPISSSICHLTNESDGHTTSLYGIGFGPFIITNKHLFRRNNGTLVVQSLHGVFKVKDTTTLQQHLVDGRDMIIIRMPKDFPPFPQKLKFREPQREERICLVTTNFQTKSMSSMVSDTSCTFPSGDGIFWKHWIQTKDGQCGSPLVSTRDGFIVGIHSASNFTNTNNYFTSVPKNFMELLTNQEAQQWVSGWRLNADSVLWGGHKVFRVKPEEPFQPVKEATQL [M219R], the “area with substrate ENAYFQS” value was found to be 0.0592, the “area with substrate ENCYFQS” value was found to be 0.0635, the “area with substrate ENDYFQS” value stood at 0.0665 and the “area with substrate ENEYFQS” value is 0.0693. Moreover, the “area with substrate ENFYFQS” value is 0.0564, the “area with substrate ENGYFQS” value was 0.0707, the “area with substrate ENHYFQS” value came to 0.0477 and the “area with substrate ENIYFQS” value is 0.0593. Also, the “area with substrate ENMYFQS” value came to 0.0638, the “area with substrate ENNYFQS” value was found to be 0.049, the “area with substrate ENPYFQS” value worked out at 0.0593 and the “area with substrate ENQYFQS” value turned out to be 0.0504. For the same variant, the “area with substrate ENRYFQS” value was 0.0655, the “area with substrate ENSYFQS” value was determined as 0.0674, the “area with substrate ENTYFQS” value was 0.0619 and the “area with substrate ENVYFQS” value turned out to be 0.0589. Also, the “area with substrate ENYYFQS” value is 0.0616.
Regarding MGESLFKGPRDYNPISSSICHLTNESDGHTTSLYGIGFGPFIITNKHLFRRNNGTLVVQSLHGVFKVKDTTTLQQHLVDGRDMIIIRMPKDFPPFPQKLKFREPQREERICLVTTNFQTKSMSSMVSDTSCTFPSGDGIFWKHWIQTKDGQCGSPLVSTRDGFIVGIHSASNFTNTNNYFTSVPKNFMELLTNQEAQQWVSGWRLNADSVLWGGHKVFDVKPEEPFQPVKEATQL [M219D], the “area with substrate ENAYFQS” value amounted to 0.0586, the “area with substrate ENCYFQS” value was found to be 0.06, the “area with substrate ENDYFQS” value amounted to 0.0455 and the “area with substrate ENEYFQS” value stood at 0.057. In addition, the “area with substrate ENFYFQS” value was 0.0592, the “area with substrate ENGYFQS” value amounted to 0.0619, the “area with substrate ENIYFQS” value came out at 0.0779 and the “area with substrate ENKYFQS” value was 0.062. Moreover, the “area with substrate ENPYFQS” value was 0.0596, the “area with substrate ENQYFQS” value came out at 0.063, the “area with substrate ENRYFQS” value turned out to be 0.0595 and the “area with substrate ENSYFQS” value worked out at 0.0584. For the same variant, the “area with substrate ENTYFQS” value came out at 0.0632, the “area with substrate ENVYFQS” value amounted to 0.0665, the “area with substrate ENWYFQS” value is 0.0531 and the “area with substrate ENYYFQS” value stood at 0.0612.
As for MGESLFKGPRDYNPISSSICHLTNESDGHTTSLYGIGFGPFIITNKHLFRRNNGTLVVQSLHGVFKVKDTTTLQQHLVDGRDMIIIRMPKDFPPFPQKLKFREPQREERICLVTTNFQTKSMSSMVSDTSCTFPSGDGIFWKHWIQTKDGQCGSPLVSTRDGFIVGIHSASNFTNTNNYFTSVPKNFMELLTNQEAQQWVSGWRLNADSVLWGGHKVFQVKPEEPFQPVKEATQL [M219Q], the “area with substrate ENAYFQS” value amounted to 0.0554, the “area with substrate ENCYFQS” value stood at 0.0604, the “area with substrate ENDYFQS” value was found to be 0.0632 and the “area with substrate ENEYFQS” value was 0.0637. Besides, the “area with substrate ENFYFQS” value was 0.0503, the “area with substrate ENGYFQS” value came out at 0.0641, the “area with substrate ENHYFQS” value was determined as 0.0536 and the “area with substrate ENIYFQS” value stood at 0.0677. Moreover, the “area with substrate ENKYFQS” value came out at 0.0603, the “area with substrate ENMYFQS” value was 0.0556, the “area with substrate ENPYFQS” value worked out at 0.0606 and the “area with substrate ENQYFQS” value came to 0.0633. In addition, the “area with substrate ENRYFQS” value came to 0.0592, the “area with substrate ENSYFQS” value was 0.0532, the “area with substrate ENTYFQS” value is 0.0586 and the “area with substrate ENVYFQS” value came to 0.0621. The “area with substrate ENYYFQS” value came out at 0.0437.
In the case of MGESLFKGPRDYNPISSSICHLTNESDGHTTSLYGIGFGPFIITNKHLFRRNNGTLVVQSLHGVFKVKDTTTLQQHLVDGRDMIIIRMPKDFPPFPQKLKFREPQREERICLVTTNFQTKSMSSMVSDTSCTFPSGDGIFWKHWIQTKDGQCGSPLVSTRDGFIVGIHSASNFTNTNNYFTSVPKNFMELLTNQEAQQWVSGWRLNADSVLWGGHKVFLVKPEEPFQPVKEATQL [M219L], the “area with substrate ENAYFQS” value came to 0.0597, the “area with substrate ENEYFQS” value is 0.0538, the “area with substrate ENFYFQS” value was 0.0636 and the “area with substrate ENHYFQS” value stood at 0.0442. Also, the “area with substrate ENIYFQS” value worked out at 0.131, the “area with substrate ENNYFQS” value is 0.0578, the “area with substrate ENPYFQS” value worked out at 0.0685 and the “area with substrate ENSYFQS” value amounted to 0.0283. Besides, the “area with substrate ENTYFQS” value came to 0.0369.
MGESLFKGPRDYNPISSSICHLTNESDGHTTSLYGIGFGPFIITNKHLFRRNNGTLVVQSLHGVFKVKDTTTLQQHLVDGRDMIIIRMPKDFPPFPQKLKFREPQREERICLVTTNFQTKSMSSMVSDTSCTFPSGDGIFWKHWIQTKDGQCGSPLVSTRDGFIVGIHSASNFTNTNNYFTSVPKNFMELLTNQEAQQWVSGWRLNADSVLWGGHKVHMVKPEEPFQPVKEATQL [F218H]: the “area with substrate ENAYFQS” value is 0.047, the “area with substrate ENCYFQS” value was found to be 0.097, the “area with substrate ENDYFQS” value is 0.0524 and the “area with substrate ENEYFQS” value amounted to 0.0693. Besides, the “area with substrate ENFYFQS” value came to 0.0618, the “area with substrate ENGYFQS” value was determined as 0.0691, the “area with substrate ENKYFQS” value came to 0.0424 and the “area with substrate ENPYFQS” value is 0.0644. In addition, the “area with substrate ENQYFQS” value was determined as 0.0753, the “area with substrate ENSYFQS” value is 0.0738, the “area with substrate ENTYFQS” value came out at 0.0536 and the “area with substrate ENVYFQS” value was 0.0702.
Consider MGESLFKGPRDYNPISSSICHLTNESDGHTTSLYGIGFGPFIITNKHLFRRNNGTLVVQSLHGVFKVKDTTTLQQHLVDGRDMIIIRMPKDFPPFPQKLKFREPQREERICLVTTNFQTKSMSSMVSDTSCTFPSGDGIFWKHWIQTKDGQCGSPLVSTRDGFIVGIHSASNFTNTNNYFTSVPKNFMELLTNQEAQQWVSGWRLNADSVLWGGHKVFMVKVEEPFQPVKEATQL [P222V], for which the “area with substrate ENAYFQS” value is 0.0542, the “area with substrate ENCYFQS” value worked out at 0.0628, the “area with substrate ENDYFQS” value was determined as 0.0636 and the “area with substrate ENEYFQS” value stood at 0.0694. The “area with substrate ENFYFQS” value was found to be 0.0569, the “area with substrate ENGYFQS” value turned out to be 0.0536, the “area with substrate ENHYFQS” value came out at 0.061 and the “area with substrate ENIYFQS” value was 0.0851. Besides, the “area with substrate ENKYFQS” value was 0.0575, the “area with substrate ENMYFQS” value is 0.0662, the “area with substrate ENNYFQS” value turned out to be 0.0543 and the “area with substrate ENPYFQS” value was determined as 0.0694. For the same variant, the “area with substrate ENQYFQS” value was determined as 0.0549, the “area with substrate ENRYFQS” value is 0.0551, the “area with substrate ENSYFQS” value worked out at 0.0541 and the “area with substrate ENTYFQS” value is 0.0831. For the same variant, the “area with substrate ENVYFQS” value came to 0.0739, the “area with substrate ENWYFQS” value was 0.0404 and the “area with substrate ENYYFQS” value is 0.053.
Regarding MGESLFKGPRDYNPISSSICHLTNESDGHTTSLYGIGFGPFIITNKHLFRRNNGTLVVQSLHGVFKVKDTTTLQQHLVDGRDMIIIRMPKDFPPFPQKLKFREPQREERICLVTTNFQTKSMSSMVSDTSCTFPSGDGIFWKHWIQTKDGQCGSPLVSTRDGFIVGIHSASNFTNTNNYFTSVPKNFMELLTNQEAQQWVSGWRLNADSVLWGGHKVFMVNPEEPFQPVKEATQL [K221N], the “area with substrate ENAYFQS” value came out at 0.0546, the “area with substrate ENCYFQS” value is 0.0604, the “area with substrate ENDYFQS” value amounted to 0.0589 and the “area with substrate ENFYFQS” value is 0.0573. Besides, the “area with substrate ENGYFQS” value turned out to be 0.0728, the “area with substrate ENHYFQS” value came out at 0.058, the “area with substrate ENIYFQS” value was determined as 0.0928 and the “area with substrate ENKYFQS” value worked out at 0.0644. For the same variant, the “area with substrate ENMYFQS” value is 0.0783, the “area with substrate ENNYFQS” value was determined as 0.0607, the “area with substrate ENPYFQS” value was 0.065 and the “area with substrate ENQYFQS” value stood at 0.0566. Further, the “area with substrate ENRYFQS” value turned out to be 0.0655, the “area with substrate ENSYFQS” value was determined as 0.056, the “area with substrate ENTYFQS” value stood at 0.0559 and the “area with substrate ENVYFQS” value stood at 0.0709. The “area with substrate ENWYFQS” value came out at 0.0445 and the “area with substrate ENYYFQS” value worked out at 0.055.
Consider MGESLFKGPRDYNPISSSICHLTNESDGHTTSLYGIGFGPFIITNKHLFRRNNGTLVVQSLHGVFKVKDTTTLQQHLVDGRDMIIIRMPKDFPPFPQKLKFREPQREERICLVTTNFQTKSMSSMVSDTSCTFPSGDGIFWKHWIQTKDGQCGSPLVSTRDGFIVGIHSASNFTNTNNYFTSVPKNFMELLTNQEAQQWVSGWRLNADSVLWGGHKVFMVTPEEPFQPVKEATQL [K221T], for which the “area with substrate ENAYFQS” value was 0.0662, the “area with substrate ENCYFQS” value is 0.0787, the “area with substrate ENDYFQS” value came to 0.0589 and the “area with substrate ENEYFQS” value worked out at 0.0674. Also, the “area with substrate ENFYFQS” value stood at 0.0581, the “area with substrate ENGYFQS” value was found to be 0.0553, the “area with substrate ENHYFQS” value was found to be 0.0618 and the “area with substrate ENIYFQS” value is 0.0721. Besides, the “area with substrate ENKYFQS” value was found to be 0.0627, the “area with substrate ENMYFQS” value was determined as 0.0515, the “area with substrate ENNYFQS” value was 0.0544 and the “area with substrate ENQYFQS” value was found to be 0.0755. The “area with substrate ENRYFQS” value was 0.068, the “area with substrate ENSYFQS” value was 0.0846 and the “area with substrate ENVYFQS” value is 0.0519.
Regarding MGESLFKGPRDYNPISSSICHLTNESDGHTTSLYGIGFGPFIITNKHLFRRNNGTLVVQSLHGVFKVKDTTTLQQHLVDGRDMIIIRMPKDFPPFPQKLKFREPQREERICLVTTNFQTKSMSSMVSDTSCTFPSGDGIFWKHWIQTKDGQCGSPLVSTRDGFIVGIHSASNFTNTNNYFTSVPKNFMELLTNQEAQQWVSGWRLNADSVLWGGHKVFMVYPEEPFQPVKEATQL [K221Y], the “area with substrate ENAYFQS” value turned out to be 0.0627, the “area with substrate ENCYFQS” value is 0.0613, the “area with substrate ENDYFQS” value was 0.0638 and the “area with substrate ENEYFQS” value came to 0.0548. The “area with substrate ENGYFQS” value is 0.063, the “area with substrate ENHYFQS” value was 0.0647, the “area with substrate ENIYFQS” value amounted to 0.0853 and the “area with substrate ENKYFQS” value was 0.0554. Moreover, the “area with substrate ENNYFQS” value worked out at 0.0553, the “area with substrate ENPYFQS” value was found to be 0.0569, the “area with substrate ENQYFQS” value came to 0.0432 and the “area with substrate ENRYFQS” value is 0.0756. The “area with substrate ENSYFQS” value came to 0.0464 and the “area with substrate ENVYFQS” value was 0.0668.
